Reference: PubChem BioAssay (NCATS)
Inconclusive means that the source gave no clear call. Such entries were picked first, then a sample of the others. Where a call stands in place of a potency, no number is given. Potencies beside an inconclusive call are fits to weak or partial responses and may not hold up. The source made the active and inactive calls. The call rests on the fitted dose curve; in most records, active means well fitted cell-killing curve with a large enough effect; inconclusive means small, poorly fitted or top-dose-only effect, or effect the other way; inactive means flat fitted curve, though single readings scatter.

These molecules were tested on OV90 (assay: Primary qHTS to identify gynecologic anti-cancer compounds using libraries of approved drugs and bioactive compounds (AID 1345084; further: nearly all actives have a fitted effect of over 55% in size)). Details: Gynecologic cancer cell panel viability, ATPlite luminescence, 48 h; series mostly up to 57.5 µM.
Method in brief: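 Measured: luminescence after ATPlite addition (15 min, RT). Exposure: 48 h, 37 C, 5% CO2.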
Potency means the concentration at half of the fitted maximal effect; tags describe the fitted curve by direction and shape.

Compound | Potency
C[C@]12Cc3cn[nH]c3C[C@@H]1CC[C@@H]1[C@@H]2CC[C@@]2(C)[C@H]1CC[C@]2(C)O | inactive
Nc1ccc(Sc2ccc(N)cc2)cc1 | inconclusive: 7.94 µM [rising, partial curve, poor fit]
COc1cc(C(=O)O[C@H]2[C@@H]3C=CO[C@@H](O[C@@H]4O[C@H](CO)[C@@H](O)[C@H](O)[C@H]4O)[C@@H]3[C@@]3(CO)O[C@@H]23)ccc1O | inactive
OCCCBr | inactive
Clc1ccc(N2C[C@H]3CC[C@@H](C2)N3)nn1 | inactive
C[C@]12CC[C@H](O)C[C@@]1(O)CC[C@@H]1[C@@H]2CC[C@]2(C)[C@@H](c3ccc(=O)oc3)CC[C@]12O | inactive
C=C1CC[C@@]2(O)[C@H]3Cc4ccc(O)c5c4[C@@]2(CCN3CC2CC2)[C@H]1O5 | inactive
C[C@H](CCC(=O)O)C[C@H](C)C[C@H](C)C(=O)/C=C(\O)[C@H](C)C[C@H](C)C/C=C/[C@@H](C)[C@@H](O)[C@@H](C)[C@@H](O)C[C@@H]1CC[C@@](C)([C@H]2CC[C@@](C)([C@@H](C)O)O2)O1 | inconclusive: 0.398 µM [cytotoxic, single point]
CN(C)CCc1ccc(O)cc1 | inconclusive: 8.91 µM [rising, single point]
CC(C)N(CCC(C(N)=O)(c1ccccc1)c1ccccn1)C(C)C (centres undefined) | inactive
C[C@]12CC[C@H]3[C@@H](CCC4=CC(=O)CC[C@@H]43)[C@@H]1CC[C@@H]2OC(=O)CCc1ccccc1 | inactive
CN=C(NS(=O)(=O)c1ccc(Cl)cc1)N1C[C@H](c2ccccc2)C(c2ccc(Cl)cc2)=N1 | inactive
C[C@]12CC[C@@H](O)C[C@@H]1CC[C@@H]1[C@@H]2CC[C@]2(C)C(=O)[C@@H](Br)C[C@@H]12 | inactive
CCCCOC(=O)c1ccccc1C(=O)OCc1ccccc1 | inconclusive: 10 µM [rising, single point]
CN1C(=O)C(Cc2ccc3ccccc3c2)N=C(c2ccc(O)cc2)c2cc(Cl)ccc21 (centres undefined) | inactive
CCC(C)/C=C(C)/C=C/C1=CC2=C(Cl)C(=O)C(C)(OC(C)=O)C(=O)C2=CO1 (centres undefined) | inactive
CCOP(=O)(NC(C)C)Oc1ccc(SC)c(C)c1 (centres undefined) | inconclusive: 39.8 µM [cytotoxic, single point]
CCC1=CC2CN3CCc4c([nH]c5ccccc45)[C@@](C(=O)OC)(C2)[C@@H]13 | inactive
C=C[C@H]1CN2CC[C@H]1C[C@@H]2[C@@H](O)c1ccnc2ccccc12 | inactive
